In the supplement of paper PMC10338343:
± gives the standard deviation. The list shows a part of the results, in another mix than the full data.

These sequences were tested on MIWI (PIWIL1) piRISC loaded with piRNA #1 (30 nt) (assay: pre-steady-state target cleavage rate (min^-1); MIWI and MILI are mouse PIWI proteins and EfPiwi is from a freshwater sponge; tags in brackets are library labels; higher = faster piRNA-guided slicing of the target). Conditions: guide: piRNA #1 5'p-UGAGGUAGUAGGUUGUAUAGUAUCCAGAGG; auxiliary factor: 500 nM mouse GTSF1.
Method in brief: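 The pre-steady-state cleavage rate was obtained by Cleave-'n-Seq with a burst-and-steady-state fit. A transcribed, DNA-blocked target RNA library (0.1 nM) was mixed with 1 nM active affinity-purified piRISC carrying one synthetic guide, with or without 500 nM GTSF1 partner protein, in HEPES–potassium acetate buffer at 33 °C for 0–8 or 0–960 min. Uncleaved targets were sequenced and normalised to depth and to weakly complementary targets, with three trials pooled and k3 capped at 0.0001 min^-1.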

Row | Sequence | pre-steady-state target cleavage rate
1 | GGUCAGGAUACUAUACAACCUACUAGCUCA | 0.255 ± 0.033
2 | GGAGUGGAUACUAUACAACCUUCUACGUCA | 0.103 ± 0.021
3 | GGAGACGAUACUAUACAUCCUACAACCUCA | 0.984 ± 0.063
4 | GCUCUGGAAACUAAACAACCUACUACCUCA | 1.56 ± 0.11
5 | GGACUGGAUACUAUACAAGCUACAACCUCA | 0.506 ± 0.048
6 | GGAGACGAGACUAUACAACCUACUACCUCA | 1.63 ± 0.11
7 | GGAGACCUAUGAUAUCGAACCUACUACCUCA | < 0.0001
8 | GGAGAGGAUACUUAACAACCUACUACCUCA | 1.11 ± 0.09
9 | CGUCUGGAUACUAUACAACCUACUACCACA | 1.72 ± 0.14
10 | GGAGAGGAUACCAUACAACCUACUACCUCA | 1.39 ± 0.062
11 | GGAGUGGAUACUAUACAACCUACUACUUCA | 0.959 ± 0.055
12 | GGACUGGAUACAAUACAACCUACUACGUCA | 0.563 ± 0.054
13 | GCUCUGGAAACUAUACAAGCUACUACCUCA | 1.4 ± 0.074
14 | GCUCUGGAUACUAGACAACCUACUACCUCA | 1.78 ± 0.1
15 | GCUCUGGAUACUAUACAACCUACUACUUCA | 2.26 ± 0.14
16 | GGACUGGAUACUAGUACAACCUACUACCUCA | 1.48 ± 0.14
